According to the supplement of paper PMC6089552:
The whole screen tested about 3,200 compounds, of which about 300 (9.4%) showed activity. This is a selection; strong and weak results do not stand in their true shares.

Tested on: A673/TR/shEF
Test: cell viability (LOESS-normalised, relative to median of negative controls) (log2 ratio); higher = more viable cells (less compound effect), active = hit call of the paper (over 3 MAD below the median)
Settings: treatment time: 72 h
Summary of the method: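 For three days, A673/TR/shEF Ewing sarcoma cells in 384-well plates (1,500 per well) were treated with library compounds at two or more concentrations or with DMSO controls, after doxycycline had been added or withheld 24 h beforehand to induce EWS-FLI1 shRNA knockdown. Viability was read by CellTiter-Glo luminescence on an Envision reader. The data were LOESS-corrected per plate, divided by the median of negative controls and log2-transformed.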

[1] = 0.103 µM, library screen: screen3, EWS-FLI1 expression: high (no doxycycline)
[2] = 0.103 µM, library screen: screen3, EWS-FLI1 expression: low (doxycycline-induced shRNA knockdown)
[3] = 0.308 µM, library screen: screen3, EWS-FLI1 expression: high (no doxycycline)
[4] = 0.308 µM, library screen: screen3, EWS-FLI1 expression: low (doxycycline-induced shRNA knockdown)
[5] = 0.926 µM, library screen: screen3, EWS-FLI1 expression: high (no doxycycline)
[6] = 0.926 µM, library screen: screen3, EWS-FLI1 expression: low (doxycycline-induced shRNA knockdown)
[7] = 2.8 µM, library screen: screen3, EWS-FLI1 expression: high (no doxycycline)
[8] = 2.8 µM, library screen: screen3, EWS-FLI1 expression: low (doxycycline-induced shRNA knockdown)
[9] = 8.3 µM, library screen: screen3, EWS-FLI1 expression: high (no doxycycline)
[10] = 8.3 µM, library screen: screen3, EWS-FLI1 expression: low (doxycycline-induced shRNA knockdown)
[11] = 25 µM, library screen: screen3, EWS-FLI1 expression: high (no doxycycline)
[12] = 25 µM, library screen: screen3, EWS-FLI1 expression: low (doxycycline-induced shRNA knockdown)
[13] = 0.25 µM, library screen: screen1, EWS-FLI1 expression: high (no doxycycline)
[14] = 0.25 µM, library screen: screen1, EWS-FLI1 expression: low (doxycycline-induced shRNA knockdown)
[15] = 0.25 µM, library screen: screen2, EWS-FLI1 expression: high (no doxycycline)
[16] = 0.25 µM, library screen: screen2, EWS-FLI1 expression: low (doxycycline-induced shRNA knockdown)
[17] = 2.5 µM, library screen: screen1, EWS-FLI1 expression: high (no doxycycline)
[18] = 2.5 µM, library screen: screen1, EWS-FLI1 expression: low (doxycycline-induced shRNA knockdown)
[19] = 2.5 µM, library screen: screen2, EWS-FLI1 expression: high (no doxycycline)
[20] = 2.5 µM, library screen: screen2, EWS-FLI1 expression: low (doxycycline-induced shRNA knockdown)

Measured: cell viability (log2)

Clc1ccc(Nc2nnc(Cc3ccncc3)c3ccccc23)cc1
inactive: [1] 0.0957 | [2] 0.075 | [3] 0.106 | [4] 0.0929 | [5] 0.0501 | [6] 0.104 | [7] 0.103 | [8] 0.0818 | [9] 0.192 | [10] 0.107 | [11] 0.126 | [12] 0.0443

Cc1cc(O)c2c(c1)C(=O)c1cc(O)cc(O)c1C2=O
inactive: 0.025 µM, library screen: screen2, EWS-FLI1 expression: high (no doxycycline) 0.128 | 0.025 µM, library screen: screen2, EWS-FLI1 expression: low (doxycycline-induced shRNA knockdown) 0.0464 | [13] 0.0461 | [14] -0.0946 | [15] 0.148 | [16] 0.0491 | [17] 0.101 | [18] -0.0427 | [19] 0.1 | [20] 0.0836 | 25 µM, library screen: screen2, EWS-FLI1 expression: high (no doxycycline) 0.0169 | 25 µM, library screen: screen2, EWS-FLI1 expression: low (doxycycline-induced shRNA knockdown) -0.017

O=C(O)CSCC(=O)NC1CCSC1=O (stereo unspecified)
inactive: [1] 0.0382 | [2] 0.0164 | [3] 0.0384 | [4] 0.0888 | [5] 0.0295 | [6] 0.0633 | [7] -0.0368 | [8] 0.0578 | [9] 0.0607 | [10] 0.0674 | [11] 0.0738 | [12] 0.036

CC(C)=CCOc1cc2oc(=O)ccc2cc1O
inactive: [13] 0.00827 | [14] 0.0441 | [17] 0.122 | [18] 0.0618

COC(=O)[C@H](O)[C@H]1C(C)(C)[C@H](O)[C@@H]2CC3=C4CC(=O)O[C@@H](c5ccco5)[C@]4(C)CC[C@@H]3[C@@]1(C)C2=O
inactive: [13] 0.0837 | [14] 0.0423 | [17] 0.0416 | [18] -0.137

CCCn1c(=O)c2[nH]c(-c3ccc(OCC(=O)Nc4ccc(C#N)cc4)cc3)nc2n(CCC)c1=O
inactive: [15] 0.103 | [16] 0.0552 | [19] 0.104 | [20] 0.0865

COc1ccc2nc([S+]([O-])Cc3ncc(C)c(OC)c3C)[nH]c2c1 (stereo unspecified)
inactive: [1] 0.0555 | [2] 0.0372 | [3] -0.0266 | [4] 0.0199 | [5] -0.0106 | [6] 0.0522 | [7] -0.0439 | [8] 0.0389 | [9] -0.0449 | [10] 0.0231 | [11] -0.03 | [12] -0.014

CC(=O)OCC(=O)[C@@]1(O)CC[C@H]2[C@@H]3CC[C@@H]4C[C@H](OC(C)=O)CC[C@]4(C)[C@H]3C(=O)C[C@@]21C
inactive: [13] 0.118 | [14] 0.0343 | [17] 0.0611 | [18] -0.0696

NCC[C@H](O)C(=O)N[C@@H]1C[C@H](N)[C@@H](O[C@H]2O[C@H](CN)[C@@H](O)[C@H](O)[C@H]2O)[C@H](O)[C@H]1O[C@H]1O[C@H](CO)[C@@H](O)[C@H](N)[C@H]1O
inactive: [13] 0.0759 | [14] 0.0848 | [17] 0.168 | [18] 0.167

CC(C)C1CCC(C(=O)N[C@H](Cc2ccccc2)C(=O)O)CC1 (stereo partly specified)
inactive: [1] 0.0543 | [2] 0.116 | [13] 0.138 | [14] 0.0814 | [3] 0.106 | [4] 0.0564 | [5] 0.127 | [6] 0.101 | [17] 0.113 | [18] 0.0941 | [7] 0.12 | [8] 0.0638 | [9] 0.0522 | [10] 0.0477 | [11] 0.0988 | [12] 0.0513

COc1ccc2c(=O)c(CC(=O)O)coc2c1
inactive: [13] 0.0632 | [14] 0.171 | [17] 0.119 | [18] 0.0778

CNc1ccccc1C(=O)N1CCc2c([nH]c3ccccc23)C1=O
inactive: [13] 0.0191 | [14] -0.0744 | [17] 0.0945 | [18] 0.0188

COCCOC(=O)C1=C(C)NC(=S)NC1c1ccccc1OC (stereo unspecified)
inactive: [13] 0.0949 | [14] 0.0382 | [17] 0.0563 | [18] 0.0651

CCCCCCCCCCCCC/C=C/[C@@H](O)[C@@H](N)CO
active: 25 µM, library screen: screen1, EWS-FLI1 expression: high (no doxycycline) -4.25 | 25 µM, library screen: screen1, EWS-FLI1 expression: low (doxycycline-induced shRNA knockdown) -4.31

COc1ccccc1OCC(O)COC(N)=O (stereo unspecified)
inactive: [1] 0.0279 | [2] 0.00385 | [13] 0.0999 | [14] 0.0902 | [3] 0.0286 | [4] 0.175 | [5] 0.0956 | [6] 0.0529 | [17] 0.13 | [18] 0.117 | [7] 0.0771 | [8] 0.0824 | [9] 0.057 | [10] 0.0934 | [11] 0.035 | [12] 0.0424

Cc1cc(N)c2ccccc2[n+]1CCCCCCCCCC[n+]1c(C)cc(N)c2ccccc21
active: [17] -1.46 | [18] -0.54 | [19] -0.865 | [20] -0.463

Nc1c2c(nc3ccccc13)CCCC2O (stereo unspecified)
inactive: [13] 0.0588 | [14] 0.0031 | [15] 0.124 | [16] 0.114 | [17] 0.149 | [18] 0.0647 | [19] 0.221 | [20] -0.00778
